From PMC2885026
No constants are given. Whether binding was seen depends on the method and setting. Binding seen in cells or lysates may run through a third protein. Some binding calls cover weakened binding; strength is not graded here. For part of these data: Tags and fused reporters may be left off the sequences shown.

Sequences of proteins named here, by UniProt entry; tags and fusion partners are left off.
UniProt P17066: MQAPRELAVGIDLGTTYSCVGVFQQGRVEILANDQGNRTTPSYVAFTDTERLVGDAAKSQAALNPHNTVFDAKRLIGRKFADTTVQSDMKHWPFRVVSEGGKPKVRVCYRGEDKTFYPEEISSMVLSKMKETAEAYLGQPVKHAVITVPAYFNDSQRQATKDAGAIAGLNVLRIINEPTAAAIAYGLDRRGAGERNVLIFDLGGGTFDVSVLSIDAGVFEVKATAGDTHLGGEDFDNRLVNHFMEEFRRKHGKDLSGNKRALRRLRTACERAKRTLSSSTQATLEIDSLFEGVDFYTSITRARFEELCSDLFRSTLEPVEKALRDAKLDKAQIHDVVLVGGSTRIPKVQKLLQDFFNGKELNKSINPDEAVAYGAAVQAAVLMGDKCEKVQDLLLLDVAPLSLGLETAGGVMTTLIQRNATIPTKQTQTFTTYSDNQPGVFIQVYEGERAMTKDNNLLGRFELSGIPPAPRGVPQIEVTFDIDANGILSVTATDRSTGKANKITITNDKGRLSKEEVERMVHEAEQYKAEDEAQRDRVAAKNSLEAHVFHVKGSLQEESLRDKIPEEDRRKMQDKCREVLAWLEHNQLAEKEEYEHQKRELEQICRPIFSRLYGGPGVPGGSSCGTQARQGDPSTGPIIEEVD

Assays:
[1] = molecular target: T1, Epstein–Barr virus nuclear antigen (EBNA) 3A expressed from recombinant adenovirus Ad-3A (Epstein–Barr virus) (UniProt P12977); assay: co-IP
T1 sequence: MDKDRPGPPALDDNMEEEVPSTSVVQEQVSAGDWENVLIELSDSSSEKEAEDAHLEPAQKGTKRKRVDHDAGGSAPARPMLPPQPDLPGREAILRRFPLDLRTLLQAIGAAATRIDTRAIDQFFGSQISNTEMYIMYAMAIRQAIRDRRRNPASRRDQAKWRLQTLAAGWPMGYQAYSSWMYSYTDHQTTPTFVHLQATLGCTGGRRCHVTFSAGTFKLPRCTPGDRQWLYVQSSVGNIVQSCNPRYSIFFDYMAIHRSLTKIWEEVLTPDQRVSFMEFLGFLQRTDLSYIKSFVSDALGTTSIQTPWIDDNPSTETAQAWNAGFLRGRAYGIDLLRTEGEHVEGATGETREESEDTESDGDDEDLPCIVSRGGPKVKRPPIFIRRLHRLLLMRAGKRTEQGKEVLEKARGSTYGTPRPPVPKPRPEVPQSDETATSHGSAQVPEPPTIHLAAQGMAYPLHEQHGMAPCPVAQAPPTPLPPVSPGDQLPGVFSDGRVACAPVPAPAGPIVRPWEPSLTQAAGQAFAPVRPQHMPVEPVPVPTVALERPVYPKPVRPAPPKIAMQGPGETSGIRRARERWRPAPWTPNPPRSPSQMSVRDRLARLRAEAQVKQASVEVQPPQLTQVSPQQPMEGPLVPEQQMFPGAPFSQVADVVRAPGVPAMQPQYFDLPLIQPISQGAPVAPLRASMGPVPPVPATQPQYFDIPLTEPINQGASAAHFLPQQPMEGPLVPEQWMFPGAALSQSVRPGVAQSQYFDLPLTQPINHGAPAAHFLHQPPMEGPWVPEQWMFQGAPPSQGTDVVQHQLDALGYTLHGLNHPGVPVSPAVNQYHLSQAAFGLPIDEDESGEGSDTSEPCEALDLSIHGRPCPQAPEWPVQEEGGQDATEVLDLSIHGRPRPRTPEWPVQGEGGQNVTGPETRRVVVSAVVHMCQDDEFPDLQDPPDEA

[2] = molecular target: Hsp40 (DNAJA1) (human (endogenous in IMR-90 and LCLs)) (UniProt P31689); assay: co-IP
[3] = molecular target: Hsp90α (human (endogenous in IMR-90 and ED-LCL)) (UniProt P07900); assay: co-IP
[4] = molecular target: Hsp70B′ (HspA6) (human (endogenous in IMR-90 and LCLs)) (UniProt P17066); assay: co-IP
[5] = molecular target: Hsp70 (HspA1A) (human (endogenous in IMR-90)) (UniProt P0DMV8); assay: co-IP
[6] = molecular target: Bag3 (human (endogenous in LCLs)) (UniProt O95817); assay: co-IP; a second independent LCL; data not shown
[7] = molecular target: Hsp40 (DNAJA1) (human (endogenous in IMR-90 and LCLs)) (UniProt P31689); assay: co-IP; a second independent LCL; data not shown
[8] = molecular target: Hsp70B′ (HspA6) (human (endogenous in IMR-90 and LCLs)) (UniProt P17066); assay: co-IP; a second independent LCL; data not shown
[9] = molecular target: Bag3 (human (endogenous in LCLs)) (UniProt O95817); assay: co-IP; ED-LCL; 200 μg of protein immunoprecipitated with a 1:100 dilution of anti-Hsp antibodies, Western blot with anti-EBNA3A
[10] = molecular target: Hsp40 (DNAJA1) (human (endogenous in IMR-90 and LCLs)) (UniProt P31689); assay: as above
[11] = molecular target: Hsp90α (human (endogenous in IMR-90 and ED-LCL)) (UniProt P07900); assay: as above
[12] = molecular target: Hsp70B′ (HspA6) (human (endogenous in IMR-90 and LCLs)) (UniProt P17066); assay: as above

Hsp70 (HspA1A) (from UniProt P0DMV8 1-641)
binding [1]: binds

B1: Epstein–Barr virus nuclear antigen (EBNA) 3A expressed from recombinant adenovirus Ad-3A (protein, UniProt P12977 1-944)
chain: T1 sequence
binding [2]: binds
binding [3]: no binding
binding [4]: binds
binding [5]: binds

B2: EBNA3A expressed in lymphoblastoid cell lines (protein, UniProt P12977 1-944)
chain: T1 sequence
binding [6]: binds weakly
binding [7]: binds weakly
binding [8]: binds weakly
binding [9]: binds weakly
binding [10]: binds weakly
binding [11]: no binding
binding [12]: binds weakly
